According to the supplement of paper PMC10338343:
± gives the standard deviation. The list shows a part of the results, in another mix than the full data.

System: MIWI (PIWIL1) piRISC loaded with piRNA #1 (30 nt)
Assay: pre-steady-state target cleavage rate (min^-1); MIWI and MILI are mouse PIWI proteins and EfPiwi is from a freshwater sponge; tags in brackets are library labels; higher = faster piRNA-guided slicing of the target
Conditions: guide: piRNA #1 5'p-UGAGGUAGUAGGUUGUAUAGUAUCCAGAGG; auxiliary factor: 500 nM mouse GTSF1
Outline: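 The pre-steady-state cleavage rate was calculated from a burst-and-steady-state fit. Data came from Cleave-'n-Seq, in which […] transcribed, DNA-blocked target RNA library was mixed with 1 nM active affinity-purified piRISC carrying one synthetic guide, with or without 500 nM GTSF1 partner protein, in HEPES–potassium acetate buffer at 33 °C for 0–8 or 0–960 min. Uncleaved targets were sequenced and normalised to depth and to weakly complementary targets, three trials were pooled, and k3 was capped at 0.0001 min^-1.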
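Note: 1 nM active piRISC with 0.1 nM target library at 33 °C single turnover.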

Sequence | pre-steady-state target cleavage rate
GGAGACGAAACUAUAGAACCUACUACCUCA | 0.962 ± 0.05
CCUCUGGAUACUAUACAACCUACAACGUCA | 0.553 ± 0.061
GCUCUGGAUACUAUACAACCUACUACGAGA | 0.438 ± 0.086
GGUCUGGUUACUAUACAACCAACUACCUCA | 0.157 ± 0.015
GCUCUGGAUACUAUACAACCUUACUACCUCA | 0.00688 ± 0.0029
CCUCUCGAUACUAUACAACCUAGUACCUCA | 0.406 ± 0.047
GGAGACCUUACUAUACAACCUACUACCCUCA | 0.999 ± 0.062
GGUCUGGAUACUAUACAACCUAGAACCUCA | 0.00767 ± 0.0022
GGAGACCAUACUAUACAACCUUGUACCUCA | 0.0248 ± 0.0046
GGUCUGGAUACUAUACAACCUACUGCCUCA | 1.03 ± 0.099
GGUCUGGAUACUAUACAACCUACUACCCUCA | 0.749 ± 0.087
GGUCUGGAUACUAUACAACCUACUAUCUCA | 1.04 ± 0.093
GGAGACCUUACUAUGCAACCUACUACCUCA | 1.27 ± 0.099
GGUCUGGAUACUAUACAACCUAAUACCUCA | 0.635 ± 0.05
GGAGACGAUUCUAUACAACGUACUACCUCA | 0.555 ± 0.031
GGACUGGAUACGUAUACAACCUACUACCUCA | 1.4 ± 0.11
GCUCUGGAUUCUAUAGAACCUACUACCUCA | 0.654 ± 0.056
GGAGACCAUACUAUUGUACCUACUACCUCA | 0.00746 ± 0.0019
CCUCUGGAUACUAUACAGACCUACUACCUCA | 0.0114 ± 0.0052
GGAGAGGAUACAAUACAUCCUACUACCUCA | 0.691 ± 0.031
GGAGAGGAUACUCAUACAACCUACUACCUCA | 1.44 ± 0.1
GGAGACCAUACUAUACAACCUAGUUCCUCA | 0.229 ± 0.028
GCUCUGGAUACUAUACAACCUACUAGGACA | 0.166 ± 0.04
GGAGACGAUACUAUACAACCUACUACCUCCA | 2.06 ± 0.12
